Experimental data as given in paper PMC10439310 (Nature microbiology, 2022).

Legend:
BsIMPDH-R141A/R144A [1] = conditions: 10 μM Ap4A
BsIMPDH-R141A/R144A [2] = conditions: presence of IMP and NAD+
BsIMPDH-K202A [3] = conditions: 10 μM Ap4A
BsIMPDH-K202A [4] = conditions: presence of IMP and NAD+

Nc1ncnc2c1ncn2[C@@H]1O[C@H](COP(=O)(O)OP(=O)(O)OP(=O)(O)OP(=O)(O)OC[C@H]2O[C@@H](n3cnc4c(N)ncnc43)[C@H](O)[C@@H]2O)[C@@H](O)[C@H]1O [Ap4A, diadenosine 5’,5’’’-P1,P4-tetraphosphate]
Ap4A-dependent regulation of enzymatic activity (in words) (BsIMPDH-R141A/R144A [1]): insensitive to Ap4A-dependent regulation
Ap4A-dependent tetramer-to-octamer equilibrium (in words) (BsIMPDH-R141A/R144A [2]): insensitive to Ap4A-dependent regulation
Ap4A-dependent change of enzymatic activity (in words) (BsIMPDH-K202A [3]): modest Ap4A-dependent reduction in activity
Ap4A-dependent octamerization (in words) (BsIMPDH-K202A [4]): still able to octamerize in dependence on Ap4A albeit higher concentrations were required
